Measured values: publication PMC5836133
The other results are listed elsewhere or left out. At the low end of the ranking the order means little.

system: T1, GST-NbGlk1(82-244); assay: protein-binding microarray; settings: NbGlk1 is a Golden2-like transcription factor of Nicotiana benthamiana; high values mean tight binding; most listed sequences are background and not binding sites; double strand, one strand shown;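 further: rank-based score ranging −0.5 to +0.5 with E above 0.45 taken as significant binding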
T1 sequence: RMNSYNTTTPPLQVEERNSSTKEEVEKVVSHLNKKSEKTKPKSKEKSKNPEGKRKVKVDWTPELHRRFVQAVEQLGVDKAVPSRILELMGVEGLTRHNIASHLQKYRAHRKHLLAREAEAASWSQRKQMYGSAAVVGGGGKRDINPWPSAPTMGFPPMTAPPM

Sequence	binding signal
AATTTCCC	0.192 E-score
AGAGCGAT	0.122 E-score
AATTCACC	0.0133 E-score
CACCTATG	-0.0688 E-score
AGTAGCTG	-0.212 E-score
AAGGTATT	0.0288 E-score
AGCAAGGA	-0.0751 E-score
ACGTCATA	-0.0218 E-score
ATGGAGGC	-0.217 E-score
ATCTCGGC	0.335 E-score
AAATTATA	0.256 E-score
AAAGCATC	-0.0794 E-score
AAACGCCA	-0.162 E-score
CACCGAGC	-0.311 E-score
AGATAGCA	0.0963 E-score
ATAACGGC	0.0591 E-score
AATCCCAT	0.331 E-score
ATGCCGCC	-0.144 E-score
ATTACGCC	0.162 E-score
ACCTGGCA	-0.117 E-score
AGCTCAAA	-0.146 E-score
AAGTCATG	-0.157 E-score
ACTGTTGA	-0.0965 E-score
CAAGATTC	0.406 E-score
ATGTACCC	-0.167 E-score

Sequence	binding signal
AATAACCT	-0.027 E-score
AGACGCCA	-0.225 E-score
AACATTCA	-0.057 E-score
ATTCGGTC	0.142 E-score
AATCACCC	0.0957 E-score
AACCGATT	0.196 E-score
AACCCGTT	-0.161 E-score
AATCAAAT	0.297 E-score
AAAATATC	0.406 E-score
AACGGACA	0.0203 E-score
ACACTTGC	-0.189 E-score
ATAAGCTC	0.000388 E-score
AAGACATG	-0.0617 E-score
AGAATGAT	0.157 E-score
CAGAGTAG	-0.0285 E-score
CACTTTTC	-0.0557 E-score
ATATGAAC	0.145 E-score
AGTGTAAC	0.0256 E-score
ACTGGTAT	-0.0291 E-score
AAGTGTAT	0.0409 E-score
ACCGTGAG	-0.179 E-score
CACCTCAC	-0.0754 E-score
AGAGGCCC	-0.327 E-score
CAATAGTC	-0.0652 E-score
ATGGTGGA	-0.0971 E-score

Sequence	binding signal
ACTTGAGC	-0.208 E-score
CACGGTTC	-0.149 E-score
CAATGTCG	-0.023 E-score
AGTTCGGC	-0.223 E-score
CAACACGA	0.0501 E-score
CACGTGCG	-0.0565 E-score
AATCATCA	0.212 E-score
CAAGCTGG	-0.286 E-score
AAAAAAGA	0.114 E-score
AGTTTGGG	-0.00283 E-score
ACTCGACA	-0.0957 E-score
ATACGTAA	0.243 E-score
AACACTAT	0.0545 E-score
ATTTGTGG	0.122 E-score
AACATCCG	0.0839 E-score
AAGATCGT	0.291 E-score
AGAACTAA	0.0988 E-score
AAATACGC	0.204 E-score
ATGTACTG	-0.0742 E-score
ATCTCCCA	0.291 E-score
ATGAGCAC	0.00769 E-score
AGTTTCTG	0.000734 E-score
ACTCCAGG	-0.229 E-score
ACCGCTCT	-0.102 E-score
ACGTATTC	0.0876 E-score

Sequence	binding signal
CACAGTAC	-0.113 E-score
ATGAGGTC	-0.181 E-score
ACCGACAC	-0.0628 E-score
AAGCCCGC	-0.361 E-score
AGTTAGAG	0.0464 E-score
CACTTCAC	0.118 E-score
AACTACAA	0.077 E-score
ACATAGAC	0.0927 E-score
AAAAGACA	0.0173 E-score
AACAAGAA	0.119 E-score
AGGACACC	-0.157 E-score
AAGGGCGA	-0.132 E-score
CAATCTCA	0.329 E-score
ACCCCTTC	-0.275 E-score
CAGAACTA	0.143 E-score
AACCTAGA	-0.0363 E-score
ACGGGTCT	-0.32 E-score
AGTTGAAC	-0.158 E-score
ACAATGCT	-0.0822 E-score
ATTTAGGC	0.0464 E-score
ATGAGCGG	-0.21 E-score
CACCGAAC	-0.186 E-score
AGGGTATC	0.307 E-score
ACTGTCGA	-0.126 E-score
CACCAGAG	-0.0602 E-score

Sequence	binding signal
AAGGCTCA	-0.287 E-score
ATCATGAG	0.137 E-score
AAAATGAT	0.142 E-score
AATGAGTG	-0.119 E-score
ACACTCAG	-0.116 E-score
AAGCGAAG	-0.169 E-score
ATACGCAA	0.311 E-score
AATGTACA	0.0592 E-score
ATTTTGTG	0.323 E-score
AATTCCCT	0.246 E-score
ATCAGGTA	0.221 E-score
CAACAGTA	-0.042 E-score
AACGTGGG	-0.0371 E-score
ACATCTCT	0.105 E-score
CACTGCGC	0.0543 E-score
AAGAGTGA	-0.0802 E-score
AACGTAAC	0.0817 E-score
AAATTAGG	0.0772 E-score
ATCGTACC	0.0685 E-score
CACGAGGG	-0.097 E-score
ATGTGCTG	-0.0549 E-score
AGTTGTTG	0.0124 E-score
ATAACGTG	0.0555 E-score
AACGAACA	-0.119 E-score
ATTATATG	0.144 E-score

Sequence	binding signal
AATGAATG	-0.0176 E-score
ATACCAAA	0.106 E-score
CACCCTTC	-0.185 E-score
ACCTCGCG	-0.185 E-score
ATAAGCAA	0.091 E-score
ACGTATGA	-0.0364 E-score
CAAAGATC	0.308 E-score
AATGGAGA	0.00542 E-score
CACCGCAA	0.00416 E-score
ACAGAGCC	-0.222 E-score
AGGCAACG	-0.152 E-score
ACTGCCTA	-0.118 E-score
AGGCAGAA	-0.0935 E-score
AATCCTAT	0.376 E-score
ACCGTGCT	-0.0444 E-score
AAGCAATG	-0.0539 E-score
AAATATGG	0.272 E-score
ACGAGGCT	-0.164 E-score
AGCCGCCG	-0.377 E-score
ACGTACTA	0.0425 E-score
AATATGAC	0.0698 E-score
AAAAAAAG	-0.0295 E-score
ATCATTCG	0.175 E-score
ACAATACG	0.121 E-score
AAGCCGTG	-0.206 E-score

Sequence	binding signal
AATACTTC	0.0798 E-score
CAATGAAA	0.0318 E-score
AGAGGGCC	-0.362 E-score
ACAGACAG	-0.0566 E-score
CAAATACC	0.0266 E-score
ATTATAAG	0.253 E-score
AAGTCCAT	-0.227 E-score
AGACAAAA	-0.0357 E-score
CACCCAAA	-0.0526 E-score
ACATAGCC	-0.182 E-score
ATGATGTG	-0.00627 E-score
ATGAATGG	0.0261 E-score
AGCTCCAA	-0.164 E-score
AGGCCTCG	-0.282 E-score
CAAGCGGA	-0.0976 E-score
AATGTTTC	0.0873 E-score
AAGCGCGG	-0.101 E-score
ATCCTACC	0.175 E-score
ATTCCGGC	0.0706 E-score
AGCCCACT	-0.338 E-score
ACTTGTTA	-0.102 E-score
AAGACAAT	0.149 E-score
